For this assay, the target named is hEGFR-6-his (SinoBiological) (human, UniProt P00533 in part). As to the kind of experiment: ELISA.

These results are taken from US20220089722A1 (published 2022).

B1: IgFD-11(anti-CD3/EGFR) (bispecific antibody)
chain 1: EVQLVESGGGLVQPGGSLRLSCAASGFTFNTYAMNWVRQAPGKGLEWVARIRSKYNNYATYYADSVKDRFTISRDDSKNTLYLQMNSLRAEDTAVYYCVRHGNFGNSYVSWFAYWGQGTLVTVSSASTKGPSVFPLAPSSKSTSGGTAALGCLVKDYFPEPVTVSWNSGALTSGVHTFPAVLQSSGLYSLSSVVTVPSSSLGTQTYICNVNHKPSNTKVDKKV[letters of human IgG1 Fc with changes not shown]
chain 2: QAVVTQEPSLTVSPGGTVTLTCRSSTGAVTTSNYANWVQQKPDHLFRGLIGGTNKRAPGTPARFSGSLLGDKAALTISGAQPEDEAEYYCALWYSNLWVFGGGTKLTVLKRTVAAPSVFIFPPSDEQLKSGTASVVCLLNNFYPREAKVQWKVDNALQSGNSQESVTEQDSKDSTYSLSSTLTLSKADYEKHKVYACEVTHQGLSSPVTKSFNRGE[letters of human IgG1 Fc with changes not shown]GGSGGSGGGGSGGGGSDIQMTQSPSSLSASVGDRVTITCQASQDISNYLNWYQQKPGKAPKLLIYDASNLETGVPSRFSGSGSGTDFTFTISSLQPEDIATYFCQHFDHLPLAFGGGTKVEIKGGGGSGGGGSGGGGSQVQLQESGPGLVKPSETLSLTCTVSGGSVSSGDYYWTWIRQSPGKGLEWIGHIYYSGNTNYNPSLKSRLTISIDTSKTQFSLKLSSVTAADTAIYYCVRDRVTGAFDIWGQGTMVTVSS
For B1, binding was put at a Kd of 0.158 nM.
